The supplement of paper PMC3334620
In all, about 33,000 sequences were measured (“E-score (-0.5 to 0.5)”: median about -0.056, highest 2% from about 0.38 on). The list shows a part of the results.

These sequences were tested against Stb4 (UniProt P50104) (assay: PBM E-score (8-mer binding enrichment) (E-score (-0.5 to 0.5)); higher = stronger / more preferred TF binding; most listed sequences are background and not binding sites). Details: protein concentration: 200 nM; construct: GST-DNA-binding domain.
Procedure, shortened: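 Detection of bound protein used fluorescent anti-GST, with scans normalised by masliner. The proteins were GST-tagged yeast transcription factors applied at about 100-200 nM to universal all-10-mer Agilent arrays made double-stranded by primer extension. Each ungapped eight-base word, pooled with its reverse complement, was scored with an E-score from the Universal PBM Analysis Suite.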
ACCGCCCA was tested, and the “PBM E-score” value was 0.0163.
In the case of AACAGGGC, the “PBM E-score” value is reported as -0.145.
With GCGTCTCA the “PBM E-score” value was -0.163.
For AACCAAAG, the “PBM E-score” value was -0.287.
In the case of CCACGGCC, the “PBM E-score” value is reported as -0.0994.
With CTCAAATC the “PBM E-score” value was -0.119.
For CAAACCTA, the “PBM E-score” value was -0.198.
AGCATTCC was tested, and the “PBM E-score” value was 0.135.
For CAACATAG, the “PBM E-score” value was -0.207.
For CTTTTTTA, the “PBM E-score” value was -0.00601.
In the case of TTACCGAA, the “PBM E-score” value is reported as 0.424.
In the case of ACCTACTA, the “PBM E-score” value is reported as -0.13.
ACTGTGAG was tested, and the “PBM E-score” value was -0.00286.
With CTATCACA the “PBM E-score” value was -0.0922.
With GCTTACCA the “PBM E-score” value was -0.058.
In the case of TGATATCA, the “PBM E-score” value is reported as -0.281.
For ATAGGATC, the “PBM E-score” value was -0.0358.
ATTATGCG was tested, and the “PBM E-score” value was 0.146.
In the case of AGCTATGC, the “PBM E-score” value is reported as -0.395.
For CAATGGCA, the “PBM E-score” value was -0.0166.
For CATCTGAC, the “PBM E-score” value was -0.159.
For CTACTTAC, the “PBM E-score” value was -0.0829.
For AACTATCC, the “PBM E-score” value was 0.216.
With AATTCTGT the “PBM E-score” value was 0.0256.
AACAATTA was tested, and the “PBM E-score” value was 0.122.
In the case of GGTGGGAC, the “PBM E-score” value is reported as -0.0489.
For GCCGAACC, the “PBM E-score” value was 0.395.
With AATCCGCG the “PBM E-score” value was 0.127.
In the case of CGATCGAA, the “PBM E-score” value is reported as -0.0746.
In the case of ATGGCGCA, the “PBM E-score” value is reported as 0.0376.
ACTATTTA was tested, and the “PBM E-score” value was 0.0934.
With AGCCGGGG the “PBM E-score” value was 0.2.
CACATAGC was tested, and the “PBM E-score” value was -0.125.
In the case of GAGTAGTA, the “PBM E-score” value is reported as -0.103.
With CCAGTACC the “PBM E-score” value was -0.0527.
For CCTACCCG, the “PBM E-score” value was 0.358.
In the case of GCGTTTCA, the “PBM E-score” value is reported as -0.0555.
ACTGAAAG was tested, and the “PBM E-score” value was 0.00649.
With GGTGTCCA the “PBM E-score” value was -0.0527.
For CCAGCGTA, the “PBM E-score” value was -0.12.
With CCCTTGGA the “PBM E-score” value was -0.11.
ATTACACC was tested, and the “PBM E-score” value was 0.0272.
CTACGCAC was tested, and the “PBM E-score” value was -0.122.
In the case of CGTTACAC, the “PBM E-score” value is reported as 0.039.
For GAAGCTTC, the “PBM E-score” value was 0.216.
In the case of GGTTAGCA, the “PBM E-score” value is reported as 0.00469.
CCGAGGTA was tested, and the “PBM E-score” value was 0.401.
In the case of GGCATCCA, the “PBM E-score” value is reported as -0.146.
With GAATTCAA the “PBM E-score” value was 0.169.
In the case of AAAAATGC, the “PBM E-score” value is reported as 0.147.
CAAAGTCA was tested, and the “PBM E-score” value was -0.161.
With AGATGCAC the “PBM E-score” value was -0.146.
In the case of CTATTCGA, the “PBM E-score” value is reported as -0.224.
In the case of CTTGCCGC, the “PBM E-score” value is reported as 0.18.
CAGCACTA was tested, and the “PBM E-score” value was -0.239.
For GCTCCGAA, the “PBM E-score” value was 0.4.
For AGTATTCC, the “PBM E-score” value was 0.262.
For ACACTGAT, the “PBM E-score” value was -0.258.
For GTGTTTGA, the “PBM E-score” value was -0.163.
With GGAGCCGA the “PBM E-score” value was 0.379.
In the case of CCCAGTTC, the “PBM E-score” value is reported as 0.0962.
In the case of AAGTATTG, the “PBM E-score” value is reported as -0.115.
With TATTTGCA the “PBM E-score” value was -0.276.
With TGTCCACA the “PBM E-score” value was -0.239.
GAACGGAC was tested, and the “PBM E-score” value was 0.0592.
In the case of AAGCATTG, the “PBM E-score” value is reported as -0.204.
GTGGAGCA was tested, and the “PBM E-score” value was 0.0216.
AAGGGTAC was tested, and the “PBM E-score” value was -0.159.
For AACAAGTG, the “PBM E-score” value was -0.0943.
For AGGAGATC, the “PBM E-score” value was -0.082.
AGCCTTAA was tested, and the “PBM E-score” value was 0.0282.
With AATCTTCA the “PBM E-score” value was 0.0951.
With AGGAAGCC the “PBM E-score” value was 0.0867.
In the case of CGACCCAC, the “PBM E-score” value is reported as 0.0879.
With AGCTTCCC the “PBM E-score” value was -0.00142.
In the case of AACCACTT, the “PBM E-score” value is reported as -0.0917.
TGCTACAA was tested, and the “PBM E-score” value was -0.0485.
CCCCTCAG was tested, and the “PBM E-score” value was -0.0721.
With AACCTGGA the “PBM E-score” value was -0.142.
With CATACAAC the “PBM E-score” value was -0.0987.
With CCGGATTC the “PBM E-score” value was 0.294.
In the case of CTCCTACA, the “PBM E-score” value is reported as -0.143.
CCTTCGCC was tested, and the “PBM E-score” value was 0.0378.
ATGCTCAC was tested, and the “PBM E-score” value was -0.062.
ACATCTCC was tested, and the “PBM E-score” value was 0.235.
ATTCGCGG was tested, and the “PBM E-score” value was 0.139.
For AAGTCTAA, the “PBM E-score” value was -0.168.
In the case of TGTAGAAA, the “PBM E-score” value is reported as -0.177.
With CGGGTCGC the “PBM E-score” value was 0.24.
TAGGTAAA was tested, and the “PBM E-score” value was 0.00148.
TCTCATAA was tested, and the “PBM E-score” value was -0.205.
With CAATTTAG the “PBM E-score” value was -0.0721.
For AGGGGAGC, the “PBM E-score” value was -0.0873.
In the case of CACCGGAG, the “PBM E-score” value is reported as 0.125.
In the case of ACAAACCC, the “PBM E-score” value is reported as 0.0864.
For AACAATAT, the “PBM E-score” value was 0.153.
GGACGGCC was tested, and the “PBM E-score” value was -0.028.
For CTAATTAA, the “PBM E-score” value was -0.0322.
With CTTAATGC the “PBM E-score” value was 0.0531.
AAACGGTG was tested, and the “PBM E-score” value was -0.188.
In the case of AAACAATT, the “PBM E-score” value is reported as 0.0396.
With TACGCCCA the “PBM E-score” value was -0.132.
For CGGTATAG, the “PBM E-score” value was 0.202.
CATCCTTC was tested, and the “PBM E-score” value was 0.0191.
AGTACACG was tested, and the “PBM E-score” value was -0.116.
For GACGCGTA, the “PBM E-score” value was -0.104.
GCTGATTA was tested, and the “PBM E-score” value was 0.0553.
For AGAAACGG, the “PBM E-score” value was 0.139.
With CATACTAC the “PBM E-score” value was 0.0396.
With GGTAACAA the “PBM E-score” value was 0.0578.
CAGCTCGA was tested, and the “PBM E-score” value was -0.144.
With AAGTTGTC the “PBM E-score” value was -0.00572.
For AGTCGCCG, the “PBM E-score” value was 0.154.
For AAAATTCT, the “PBM E-score” value was -0.0472.
GAAATCAC was tested, and the “PBM E-score” value was 0.0158.
In the case of CGGGGATC, the “PBM E-score” value is reported as 0.279.
CTGTTCCC was tested, and the “PBM E-score” value was 0.0707.
AATCATAA was tested, and the “PBM E-score” value was -0.089.
TAAGTGCA was tested, and the “PBM E-score” value was 0.00861.
With ATGTGGTC the “PBM E-score” value was -0.203.
In the case of AGACACTA, the “PBM E-score” value is reported as 0.00615.
With ACCCAAAT the “PBM E-score” value was -0.181.
GATAGGGA was tested, and the “PBM E-score” value was -0.0934.
CCGCTACC was tested, and the “PBM E-score” value was 0.142.
With ATTCCAAG the “PBM E-score” value was -0.162.
GGATGCTA was tested, and the “PBM E-score” value was 0.27.
With ATGTCCCA the “PBM E-score” value was -0.0826.
With TACCTGCA the “PBM E-score” value was -0.0176.
In the case of ACCCCGCT, the “PBM E-score” value is reported as 0.0384.
With CACTCGGA the “PBM E-score” value was 0.422.
GATAGATC was tested, and the “PBM E-score” value was 0.0728.
CCAGTTGA was tested, and the “PBM E-score” value was -0.155.
With GAGAAAGC the “PBM E-score” value was -0.0839.
With ACTCCTGA the “PBM E-score” value was -0.0483.
In the case of AACCACGT, the “PBM E-score” value is reported as -0.236.
In the case of ACCACATA, the “PBM E-score” value is reported as 0.0381.
In the case of CATACGTA, the “PBM E-score” value is reported as -0.102.
For GTGATCTA, the “PBM E-score” value was -0.0262.
For ACGCATCG, the “PBM E-score” value was -0.0318.
With GAACGTAC the “PBM E-score” value was -0.0571.
In the case of CTCTTTAA, the “PBM E-score” value is reported as -0.175.
In the case of ATAACTCA, the “PBM E-score” value is reported as -0.0537.
With TCAATTAA the “PBM E-score” value was 0.0112.
In the case of ACTCTTGA, the “PBM E-score” value is reported as -0.226.
In the case of GGGCATAA, the “PBM E-score” value is reported as -0.0978.
In the case of GGAGCGAC, the “PBM E-score” value is reported as -0.125.
In the case of GAACTCTA, the “PBM E-score” value is reported as 0.0701.
With CGTTGGGC the “PBM E-score” value was -0.0166.
With AGGCTGAT the “PBM E-score” value was -0.146.
With GCTCCCCC the “PBM E-score” value was -0.118.
In the case of CCAAAAAA, the “PBM E-score” value is reported as -0.0541.
For AGGCTTAC, the “PBM E-score” value was -0.00932.
For AAAAACGT, the “PBM E-score” value was -0.0241.
With CGGCATAC the “PBM E-score” value was 0.195.
For AAGTTGTG, the “PBM E-score” value was -0.198.
CACACGAC was tested, and the “PBM E-score” value was -0.138.
With AACAAATA the “PBM E-score” value was 0.125.
For ATTACACG, the “PBM E-score” value was 0.0921.
In the case of AGGGTAAG, the “PBM E-score” value is reported as 0.0949.
For AGATGAAT, the “PBM E-score” value was -0.168.
For TAAACGCA, the “PBM E-score” value was -0.151.
With CCGGACTA the “PBM E-score” value was 0.2.
With TCCCACGA the “PBM E-score” value was -0.0411.
For GCTAGGTA, the “PBM E-score” value was -0.0267.
With AGGACGGG the “PBM E-score” value was 0.0687.
In the case of TAGCGTAA, the “PBM E-score” value is reported as -0.0165.
For CCTGACGA, the “PBM E-score” value was -0.271.
CGCCCTTC was tested, and the “PBM E-score” value was 0.0181.
For CTAGCCTA, the “PBM E-score” value was -0.282.
In the case of GGTACAAC, the “PBM E-score” value is reported as 0.00245.
With CTCTGCGC the “PBM E-score” value was -0.104.
AGTATTGC was tested, and the “PBM E-score” value was 0.0903.
